Experimental findings from the RNAGym collection of RNA variant scans (doi:10.1073/pnas.2313332121) are described below.

The chains are these.
B1: TPR 5TU (parent)
chain: GGAUCUUCUCGAUCUAACAAAAAAGACAAAUCUGCCACAAAGCUUGAGAGCAUCUUCGGAUGCAGAGGCGGCAGCCUUCGGUGGCGCGAUAGCGCCAACGUUCUCAACUAUGACACGCAAAACGCGUGCUCCGUUGAAUGGAGUUUAUCAUG

Variants at the floor of the assay are shown more often than the library holds them.

Variants of B1 are the subject of the data set. As to the kind of experiment: polymerase ribozyme fitness, log enrichment relative to wild type (log ratio); higher = more active; in vitro selection for triplet polymerase activity. An outline of the steps: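 Fitness compares each genotype's enrichment to that of the wild type on a logarithmic scale, averaging replicates with inverse-variance weights. The logarithm is base 2. Enrichment came from Illumina sequencing of input and output libraries after one triplicate round of in vitro selection, which included frozen incubation at −7 °C, of PCR-built, transcribed mutant libraries of each subunit of a heterodimeric triplet polymerase ribozyme. Only genotypes with ≥10 input reads and ≥1 read per output were kept.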
Take GGAUCUUCUCGAUCCAACAAAAAAGACAAAUCUGCCACAAAACUUGAGAGCAUCUUCGGGUGCAGAGGCGGCAGCCUUCGGUGGCGCGAUAGCGCCAACGUUCUCAACUAUGACACGCAAAACGCGUGCUCCGUUGAAUGGAGUUUAUCAUG: the “polymerase ribozyme fitness (log ratio)” value was no more than -4.2. With GGAUCUUCUCGAUCGAACAAAAAAGACAGAUCUGCCACAAAGCUUGAGAGCAUCUUCGGAUGCAGAGGCGGCAGCGUUCGGUGCCGCGAUAGCGCUAAUGUUCUCAACUAUGACACGCAUAACGCGUGCUCCGUUGAAUGGAGUUUAUCAUG the figure was no more than -4.2; with GGAUCUUCUCGAUCCAACAAAAAAGACAAAUCUGCCACAAAGCUUGAGAGCAUCUUGGGAUGCAGAGGCGGCAGCCUUCGGGGGCGCGAUAGCACCAACGUUCUCAACUAUGACACGCAAAACGCGUGCUCCGUUGAAUGGAGUUUAUCAUG, 0.771. With GGAUCUUCUCGAUCCAACAAAAAAGACAAAUCUGCCACAAAGCUUGAGAGCAUCUUCGGAUGCAGAGGCGGCAGCCUACGGUGGCGCGAAAGCGCCAACGUUCUCCACUAUGACACGCAAAACGCGUGCUCCGUUGAAUGGAGUUUAUCAUG the figure was no more than -4.2; with GGAUCUUCUCGAUCGUACAAAAAAGACAAAUCUGCCACAAAGCUUGAGAGCAUCAUCGGAUGCUGAGGCGGCAGCCUUCGGUGGCGCGAUAACGCCAACGUUUUCAACUAUGACAGCCAAAACGCGUGCUCCGUUGAAUGCAGUUUAUCAUG, no more than -4.2. As for GGAUCUUCUCGAUCGAACAUAAAAGACAAAUCUGCCACAAAGAUUGAGAGCAUCUUCGGAUGCAGAGGCGGCAGCCUUCGGUGGCGCGAUAGCGCCCACGUUCUCAACUAUGACACGCAAAACGCGUGCUCCGUUGAAUGGAGAUUAUCAUG, the “polymerase ribozyme fitness (log ratio)” value is no more than -4.2.

With GGAUCUUCUCGAUCGAACAAAACAGACAAAUCUGCCACCAAGCUUGAGAGCAUCUUCGGAUGCAGAGGCGGCAGCAUUCGGUGGCGCGAUAGCGCCAACGUUCUCAACUAUGACACGCAAAAUGCGUGCUCCGGUGAAUGGAGUUUAUCAUG, the “polymerase ribozyme fitness (log ratio)” value is no more than -4.2. As for GGAUCUUCUCGAUCGAGCAAAAAAGACAAAUCUGCCAAAAAGCUUGAGAGCAUCUUCGGAUCCAGAGGCGGCAGCCUUCGAUGGGGCGAUAGCGCCAACGUUCUCAACUAUGACACGCAAAACGCGUGCUCCGUUGAAUGGAGUUUAUCAUG, the “polymerase ribozyme fitness (log ratio)” value was no more than -4.2. As for GGAUCUUCUCGAUCCAACAAAAAAGACAAAUCUGCCACAAAGCUUGAGAGCAUCUUCGGAUGCACAGGCGGCAGCCUUCGGUGGCGCGAUAGCGCCAACGUUCUCAACUAUGACACGCAAAACGCGUGCUCCGUUGCAUGGAGUUUAUUAGG, the “polymerase ribozyme fitness (log ratio)” value is no more than -4.2. The result for GGAUCUUCUCGAUCGAACAAAUAAGACAAAUCUGCCACAAAGCUUGAGAGCAACUUCGGAUGCAGAGGCGGCAGCCUUCGGUGGCGCGAUAGCGCCAACGUUCUCAACUAUGACACGCAACACGCGUGCUCCGUUGAAUGGAGUUUCUCAUG reads 0.0126. Regarding GGAUCUUCUCGAUCCAACAAAAAAGACAAAUCUGCCACAAAGCUUGAGAGCACCUUCGUAUGCGGAGGCGGCAGCCUUCGGUGGCGCGAUAGCGCCAAGGUUCUCAACUAUGACACGCAAAACGGGUGCUCCGUUGCAUGGAGUUUAUCAUG, the “polymerase ribozyme fitness (log ratio)” value was no more than -4.2.

On to GGAUCUUCUCGAUCGACCAAAAAAGAGAAAUCUGCCACAAAGCUUGAGAGAAUCUUCGAAUGCAGAGGCGGCAGUCUUCGGUGGCGUGAUAGCGCCAACGUUCUCAACUAUGACACGCAAAACGCGUGCUCCGUUGAAUGGAGUUUAUCAUG, for which the “polymerase ribozyme fitness (log ratio)” value was no more than -4.2. The result for GGAUCUUCUCGAUCCAACAAAAAAGACAAAUCCGCCACUAAGCUUGAGAGCAUCUUCGUAUGCAGAGGCGGCAGCCUUCUGUGGCGCGAUAGCGCCAACGUUCUCAACUAUGACACGCACAACGCGUGCUCCGUUGAAUGGAGUUUAUCAUG reads no more than -4.2; that for GGAUCUUCUCGAUCCAACAAAAAAGACAAAUCUGCCACAAAGCUUGAGAGCGUCUUCGGAUGCAGGGGCGGCAGCCUUUGGUGGCGCGAUAGCGCGAACGUUCUCAACUAUGACACGCAAAACGCGUGCUCCGUUGAAUGGAGUUUAUCAUG, no more than -4.2. For GGAUCUUCUCGAUCCAACAAAAAAGAGAAAUCAGCCACAAAGCUUGAGAGCAUCUUCGGAUGCAGAGGCGGCAGGCUUCGGUGGCGCAAUAGCGCCAACGUUCUCAACUAUGACACGCAAAACGCGUGCUCCGUUCAAUGGAGUUUAUCAUG, the “polymerase ribozyme fitness (log ratio)” value was no more than -4.2. Take GGAUCUUCUCGAUCCAACAAAAAAGACAAAUCUGCCACACAGCUUGAGAGCAUCUUCGGAUGCAGAGGCGGCAGCCUUCGGUGGCGCGAUAGAGUCAACGUUCUCAACUAUGACAAGCAAUACGCGUGCUCCGUUGAAUGGAGUUUAUCAUG: the “polymerase ribozyme fitness (log ratio)” value was -1.18. Take GGAUCUUCUCGAUCGAUCAAAUAAGACAAAUCUGCCACAAAGCUUGAGAGCAUCUUCGGAUGCAGAGGCGGCAGCCUUCGGUGGCGAGAUAGCGCCAACGUUCUCAACUAUGACACGCAAAACGCGUGCUCCGUUGAAUGGAGUUUCUCAUG: the “polymerase ribozyme fitness (log ratio)” value is no more than -4.2.

GGAUCUUCUCGAUCGUACAAAAAAGACAAAUCUGCCACAACGCUUGAGAGCCUCUUCGGAUGCAGAGGCGGCAGCCUUCGCUUGCGCGAUAGCGCCAACGUUCUCUACUAUGACACGCAAAACGCGAGCUCCGUUGAAUGGAGUUUAUCAUG: the “polymerase ribozyme fitness (log ratio)” value was no more than -4.2. With GGAUCUUCUCGAUCCAACAAAAAAGACAAAUCUGCCACAUAGCUUGAGAGCAACUUCGGAUGCAGAGGCGGCAGCCUUCGGUGCCGCGAUAGCGCCAACGUUCUCAACUAUGACACGCAAAACGCGUGCUCCGUUGAAUGGAGUUUAUCAUG the figure was -1.96.
